{"source": "PubChem BioAssay AID463173", "about": "(ICCB-Longwood Screening Facility, Harvard Medical School, 2010)", "note": "Among all 52,000 compounds or so, about 1,700 (3.3%) were called active. Rule as the data show it: active = survival mostly below about 52% (no sharp cut-off); inactive = mostly above about 56%. Some of the results follow."}
{"system": "Wild type", "assay": "growth inhibition of S. aureus wild type versus tarO mutant, primary screen, teichoic acid synthesis inhibitors, RN4220, OD600 (AID 463173)", "details": "S. aureus RN4220 wild type/DeltatarO growth, OD600, 18 h, hits give low values, screened at 18.75 µg/mL (by protocol)"}
{"smiles": "Cc1nc2nc(NC(=O)C(C)(C)C)[nH]n2c(=O)c1Cc1ccccc1", "survival": "inactive: 112%"}
{"smiles": "CN1CCN(CCC(=O)Nc2cccc(F)c2)CC1", "survival": "inactive: 111%"}
{"smiles": "CCOC(=O)c1cc2c(=O)n3ccccc3nc2n(CCOC)c1=NC(=O)C(C)(C)Oc1ccc(Cl)cc1", "survival": "inactive: 63%"}
{"smiles": "Cc1ccc(Cn2ccn(CC(=O)Nc3c(C)cc(C)cc3C)c(=O)c2=O)cc1", "survival": "inactive: 85%"}
{"smiles": "CCCCN(C)CCCNC(=O)Cn1ncc2c3ccccc3n(Cc3ccccc3F)c2c1=O", "survival": "inactive: 90%"}
{"smiles": "Cc1noc(-c2ccc(N3CCC(C)CC3)c([N+](=O)[O-])c2)n1", "survival": "inactive: 88%"}
{"smiles": "CC(O)/C=C/c1ccncc1", "note": "(stereo not drawn)", "survival": "inactive: 95%"}
{"smiles": "O=C(CSC1=Nc2ccccc2C2=NC(Cc3ccccc3)C(=O)N12)Nc1ccccc1C(F)(F)F", "note": "(stereo not drawn)", "survival": "inactive: 88%"}
{"smiles": "COc1cc(NC(=O)C2CCN(S(=O)(=O)c3ccc4c(c3)oc(=O)n4C)CC2)cc(OC)c1", "survival": "inactive: 88%"}
{"smiles": "COc1ccc(NS(=O)(=O)c2cc3c(cc2C)NC(=O)CO3)c(OC)c1", "survival": "inactive: 85%"}
{"smiles": "Cc1cccc(CNC(=O)c2oc3c(c2C)-c2nn(Cc4cccc(Cl)c4)cc2CC3)c1", "survival": "inactive: 123%"}
{"smiles": "Cc1cn2c(=O)cc(COc3ccccc3NC(=O)c3ccc(C(C)(C)C)cc3)nc2s1", "survival": "inactive: 84%"}
{"smiles": "COC(=O)c1ccc2c(c1)N(CC(=O)Nc1cccc(Cl)c1C)C(=O)c1ccccc1S2", "survival": "inactive: 71%"}
{"smiles": "CC(C)NC(=O)Cn1c(=O)nc(-c2ccccc2F)c2cc(Cl)ccc21", "survival": "inactive: 73%"}
{"smiles": "CCOc1ccc(CN2C(=O)c3ccccc3Sc3ccc(C(=O)NC)cc32)cc1", "survival": "inactive: 78%"}
{"smiles": "COC(=O)c1c(NC(=O)c2nc(SCc3cccc(C)c3)ncc2Cl)sc2c1CCCC2", "survival": "inactive: 120%"}
{"smiles": "COc1ccc(-n2nnc(-c3nc(-c4cccs4)no3)c2N)cc1OC", "survival": "inactive: 100%"}
{"smiles": "CC(=O)N1CCCC1c1nc2ccccc2n1Cc1cccc(Cl)c1", "note": "(stereo not drawn)", "survival": "inactive: 84%"}
{"smiles": "CCc1ccc(CNC(=O)COc2cc(=O)n(CC)c3ccccc23)cc1", "survival": "inactive: 51%"}
{"smiles": "Cc1ccc(-c2noc(-c3ccc(NCc4ccco4)c([N+](=O)[O-])c3)n2)cc1", "survival": "inactive: 104%"}
{"smiles": "COc1cc(NC(=O)CC(c2ccc(C)cc2)N2Cc3ccccc3C2=O)cc(OC)c1", "note": "(stereo not drawn)", "survival": "inactive: 60%"}
{"smiles": "COc1ccc(C(=O)Nc2ccc(NC(=O)c3ccco3)cc2)cc1OC", "survival": "inactive: 107%"}
{"smiles": "COc1ccc(-c2nc(C)c(CCNC(=O)C(=O)Nc3ccccc3C#N)s2)cc1OC", "survival": "inactive: 63%"}
{"smiles": "COc1cc(C2CC(=O)c3c([nH]c(C(=O)OCC4CCCCC4)c3C)C2)cc(OC)c1OC", "note": "(stereo not drawn)", "survival": "inactive: 108%"}
{"smiles": "COc1ccc(S(=O)(=O)C(C)(C)C)cc1", "survival": "inactive: 92%"}
{"smiles": "CCc1nn2c(=O)cc(COC(=O)c3ccc(NC(=O)c4cccs4)cc3)nc2s1", "survival": "inactive: 70%"}
{"smiles": "COc1ccccc1C(=O)Nc1nc2nc(-c3ccccc3)cc(=O)n2[nH]1", "survival": "inactive: 92%"}
{"smiles": "Cc1ccccc1NS(=O)(=O)c1ccc2[nH]cc(C(=O)NC(C)c3ccccc3)c(=O)c2c1", "note": "(stereo not drawn)", "survival": "inactive: 73%"}
{"smiles": "COc1ccc(Nc2nnc(-c3cc4c(ccc5ccccc54)oc3=O)s2)cc1", "survival": "inactive: 74%"}
{"smiles": "COc1ccccc1CCNC(=O)C(=O)NCC(c1cccs1)S(=O)(=O)c1ccc(C)cc1", "note": "(stereo not drawn)", "survival": "inactive: 86%"}
{"smiles": "Cc1ccc(C)c(CNC(=O)C2CCN(c3nc4ccccc4nc3C(F)(F)F)CC2)c1", "survival": "inactive: 88%"}
{"smiles": "CCOc1ccccc1CNC(=O)Cn1ncn2nc(-c3cccs3)cc2c1=O", "survival": "inactive: 93%"}
{"smiles": "O=C1C(=O)N(C2CCN(C(=O)c3ccc(Cl)cc3)CC2)CCN1Cc1ccc(F)cc1", "survival": "inactive: 70%"}
{"smiles": "CCN1CCN(CCC(=O)Nc2ccc3c(c2)CCC3)CC1", "survival": "inactive: 103%"}
{"smiles": "CCN(CC)CCCNC(=O)c1ccc2nc(N3CCCCC3)sc2c1", "survival": "inactive: 72%"}
{"smiles": "CCNC(=O)c1ccc2nc(CCc3ccccc3)oc2c1", "survival": "inactive: 74%"}
{"smiles": "Cc1cc(Nc2ccccc2C)nc(-n2nc(C)cc2C)n1", "survival": "inactive: 59%"}
{"smiles": "COc1ccc(CCNC(=O)c2cc(C)nc3c2c(C)nn3-c2ccc(C)cc2)cc1OC", "survival": "inactive: 81%"}
{"smiles": "Cc1n[nH]c(C)c1S(=O)(=O)N1CCCC(C(=O)Nc2ccc(Br)cc2)C1", "note": "(stereo not drawn)", "survival": "inactive: 128%"}
{"smiles": "O=C1c2ccccc2C(=O)N1COc1cccc2cccnc12", "survival": "inactive: 101%"}
{"smiles": "CCOc1ccccc1C(=O)N(Cc1cc(OC)c(OC)c(OC)c1)C1CCS(=O)(=O)C1", "note": "(stereo not drawn)", "survival": "inactive: 82%"}
{"smiles": "O=C(CN1CCSc2ccccc21)NCc1ccccc1F", "survival": "inactive: 100%"}
{"smiles": "CCCN(C(=O)c1cn(C)c(=O)c2ccccc12)c1ccccc1C", "survival": "inactive: 97%"}
{"smiles": "COc1ccc2nc(N(Cc3cccnc3)C(=O)C3COc4ccccc4O3)sc2c1", "note": "(stereo not drawn)", "survival": "inactive: 80%"}
{"smiles": "CCOc1ccccc1CN1CCc2nc(N3CCN(c4ccccc4F)CC3)ncc2C1", "survival": "active: -6%"}
{"smiles": "CCCOc1ccc(CN(C(=O)c2cc(=O)c3ccc(C)cc3o2)C2CCS(=O)(=O)C2)cc1", "note": "(stereo not drawn)", "survival": "inactive: 75%"}
{"smiles": "COc1ccc(N2CCN(S(=O)(=O)CCNC(=O)C3CC(=O)N(c4ccccc4)C3)CC2)cc1", "note": "(stereo not drawn)", "survival": "inactive: 73%"}
{"smiles": "Cc1nc(CC(=O)Nc2cc(Cl)ccc2C)cs1", "survival": "inactive: 85%"}
{"smiles": "COc1cc(C)ccc1OCCSc1nc(-c2cccc(C)c2)nc2cc(=O)[nH]n12", "survival": "inactive: 88%"}
{"smiles": "COc1cccc(C(=O)CC2(O)C(=O)Nc3ccc(Cl)cc32)c1", "note": "(stereo not drawn)", "survival": "inactive: 120%"}
{"smiles": "CCOC(=O)c1ccc(C(=O)OCC)nc1", "survival": "inactive: 106%"}
{"smiles": "CCOc1ccc(NC(=O)CSc2nc3c(c(=O)[nH]2)CCCC3)cc1", "survival": "inactive: 86%"}
{"smiles": "COc1ccc(C)cc1NC(=O)COCc1cc(-c2cccs2)on1", "survival": "inactive: 73%"}
{"smiles": "CCOc1ccc(-c2cc(C#N)on2)cc1", "survival": "inactive: 97%"}
{"smiles": "Cc1ccc(N(C)C(=O)Cn2cnc3onc(-c4ccc(F)cc4)c3c2=O)cc1C", "survival": "inactive: 73%"}
{"smiles": "O=C(Nc1ccccc1)c1cnc[nH]1", "survival": "inactive: 112%"}
{"smiles": "COc1cc(C2c3c(oc4ccc(F)cc4c3=O)C(=O)N2c2nc(C)c(C)s2)cc(OC)c1OC", "note": "(stereo not drawn)", "survival": "inactive: 132%"}
{"smiles": "O=C(CCS(=O)(=O)c1cc(Br)cc2c1N(C(=O)C1CC1)CC2)N1CCN(c2ccc(F)cc2)CC1", "survival": "inactive: 75%"}
